# Among all 150,000 compounds or so, about 540 (0.36%) showed an effect of 50% or more. Some of the results follow.
# System: Plasmodium falciparum
# Assay: Primary screen in NF54 nanoGlo assay, in single point, at 2uM, 72h; a lower Z score goes with more inhibition
# Type: functional, Erythrocyte
# Conditions: timepoint 72 hour
SMILES,% Inhibition [%],Z score,% Inhibition (2 µM) [%]
Cc1nc2oc(-c3ccccc3)nc2cc1NC(=O)c1cccs1,-20,2.55,
Cn1cc(C(F)(F)F)nc1[C@H]1CCCN(C(=O)c2cncnc2)C1,-5,0.61,
O=C(O)C(c1ccccc1Br)N1CCCC(n2cncn2)C1 (configuration not stated),1,-0.14,
CCS(=O)(=O)NC[C@H](C)N(C)Cc1cc(C)cc(C)n1,-7,1.41,
CC(C)c1cc(-c2nc(C3(S(C)(=O)=O)CCCC3)no2)n[nH]1,-10,1.38,
O=C(CNC(=O)c1cnccn1)NCc1c(F)cccc1F,-3,0.42,
COc1ccc(CCNC(=O)c2cc3ccc4ccc(C)nc4c3[nH]2)cc1OC,2,-0.31,
CC(C)c1cc(-c2nc(CC3CC3)nn2C(C)C)n(C)n1,-11,1.85,
CC(=O)N[C@H]1CCN(Cc2cc3ccccc3s2)C1,5,-0.75,
CN1CC2(CCN(Cc3cc(C#N)n(C)c3)CC2)C[C@@H](c2ccccc2)C1=O,-3,0.64,
CCc1ccccc1NC(=O)Cn1ncn2c(C)c(C(=O)NCc3ccc(F)cc3)c(C)c2c1=O,-6,0.9,
CCCN1CCN(c2nc(-c3ccc(OC)cc3)nc3c2CCOCC3)CC1,-15,1.46,
COc1ccc(-c2c(C(=O)Nc3ccc(Cl)cc3C)nn3c(C)cc(=O)[nH]c23)cc1,1,-0.09,
CC(C)[C@H](C)NC(=O)c1ccc(S(=O)(=O)N(C)C)cc1,31,-3.5,
CCc1nc(C)c(C(=O)N2CCC[C@H](N(C)C(=O)c3ccc4nonc4c3)C2)o1,-4,0.55,
CCc1noc(C)c1C(=O)N(CC)c1ncccc1C,-13,1.9,
C=C(C)Cn1c(-c2nccn2C)nnc1N1CCC(F)(F)C1,-3,0.4,
Cc1c(NC(=O)[C@@H](F)C(F)(F)F)c(=O)n(C2CCCCC2)n1C,-12,2.22,
Cc1nc(NCc2ccccc2)sc1C(=O)Nc1ccccc1,-8,1.08,
CCN(C)C[C@H]1CCN(S(=O)(=O)c2c[nH]c3cccc(F)c23)C1,0,-0.04,
Cc1ccsc1CCC(=O)N1CCC(Oc2nncs2)CC1,26,-3.26,
COc1ccc(C(=O)N2CCC3(CC2)C[C@@H](CNS(C)(=O)=O)CCO3)cc1F,0,-0.01,
CCCN(CC(=O)N1CCN(c2ccc(-c3cccc(OC)c3)nn2)CC1)C(=O)c1cccc(F)c1,-6,0.62,
CC(=O)C1CN(C(=O)c2cc(C)cc(C)c2)C1,-4,0.64,
O=C(N[C@H](c1ccccc1)c1cc2ccccc2o1)c1cc[n+]([O-])cc1,4,-0.36,
O=C(NS(=O)(=O)C1CCOCC1)c1csc(-c2ccco2)n1,40,-5.75,
CC1(C)C[C@@H]1C(=O)N(Cc1ncc[nH]1)c1cncc(Br)c1,-4,0.89,

SMILES,% Inhibition [%],Z score,% Inhibition (2 µM) [%]
CC[C@H](C)N/C(=N\C(=O)c1ccccc1C)OCC(C)C,-13,2.17,
Cc1nn(CCCNc2ncnc3[nH]ccc23)c(C)c1C,-2,0.27,
CN1CCN(n2ccc3c(cnc4c(-c5ccccc5)cnn43)c2=O)CC1,-9,1.16,
Cc1ccc(NCc2ccccn2)c(N(C)C)n1,-17,1.5,
CCC(=O)N1CC[C@H](c2nc(C)no2)[C@H](NC(=O)COC)C1,-11,1.38,
Cc1cc(C(=O)Nc2nc3c(s2)CNCC3)no1,16,-2.07,
O=C(N[C@H]1CCOC[C@@H]1Oc1ccc(CO)cc1)c1ncc(F)cc1F,-17,1.9,
O=C(Nc1ccc(Cl)c(Cl)c1)C1=C(c2ccccc2)S(=O)(=O)CCO1,4,-0.5,
Cc1ccc(S(=O)(=O)c2ncccc2CNCCO)cc1,-7,0.85,
CC[C@@H](CO)NCc1ccc(OC)cc1OC,,,-6
C=CCN(C)C(=O)NCC#Cc1ccc(C(F)(F)F)cc1,-1,0.12,
C[C@H]1CN(C(=O)c2cccc(-n3cccn3)n2)CCC1(F)F,-13,1.72,
CN(C)c1cccc(CNCc2ccc(C#N)cc2)c1,1,-0.08,
COC(=O)CC1(NCc2ccc(F)c(C)c2)CCS(=O)(=O)CC1,-9,0.9,
c1ccc(CN2CCCN(Cc3cnsn3)CCOCC2)cc1,28,-3.57,
CN(CC(=O)Nc1cc(F)cc(F)c1)c1ncnc2[nH]ccc12,-10,1.89,
Cc1cnn(CCC(=O)N2C[C@H]3CN(Cc4ccccc4)C[C@@]3(CN(C)C)C2)c1,-4,0.68,
Clc1cnn(Cc2csc(-c3ccco3)n2)c1,-11,2.07,
Cc1cc(CN(C)Cc2nc(C(F)(F)F)no2)no1,3,-0.5,
Cc1nc([C@H](C)n2ccnc2-c2cccc(-n3cccn3)c2)cs1,-15,1.8,
Cn1cc(Cl)cc1C(=O)N1CC[C@](C)(C(=O)OC(C)(C)C)C1,15,-1.7,
CC(C)N1CCO[C@@H](CCNC(=O)c2ccc3cccnc3n2)C1,-11,1.79,
CCN(C1CCN(C(=O)[C@H](C)OCCC(C)C)CC1)S(C)(=O)=O,-12,1.58,
O=C1[C@H]2[C@@H](C(=O)N1Cc1ccccc1)[C@]1(C(=O)Nc3ccc(Cl)cc31)N1CCC[C@@H]21,-4,0.56,
O=C1CCC(CCNCCOc2ccc(F)cc2)N1C1CCN(Cc2ccccc2)C1 (configuration not stated),-12,1.37,
Cc1ccc(-c2ncn(C3CCCCC3)c2-c2ccc(C(=O)NCCCOC(C)C)o2)cc1,-5,0.74,
NC(=O)c1cnccc1N1CCCN(CCCc2ccccc2)CC1,-7,0.71,

# — ChEMBL document CHEMBL4888484, “Replenishing the malaria drug discovery pipeline: Screening and hit evaluation of the MMV Hit Generation Library 1 (HGL1) against asexual blood stage Plasmodium falciparum ,using a nano luciferase reporter read-out” (2022)
